Test results: PubChem BioAssay AID493208 (National Center for Advancing Translational Sciences (NCATS), 2011)
Out of some 44,000 compounds screened, about 340 (0.77%) were called active. Roughly 5% stayed inconclusive and do not appear here. Calls follow the shape of the dose curve; as a rule, active = well fitted inhibition curve with a large enough effect; inconclusive = small, poorly fitted or top-dose-only effect; inactive = flat fitted curve, though single readings scatter. The list shows a part of the results.

Assay: Acumen qHTS Assay for Inhibitors of the mTORC1 Signaling Pathway in MEF (Tsc2-/-, p53-/-) Cells: Sytravon; also: nearly all actives have a fitted effect of over 50% in size;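 as to activity change, negative = inhibition: plate controls were DMSO for no effect and rapamycin for full effect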
Conditions: phospho-rpS6 immunofluorescence/PI, 24 h; series mostly up to 38.3 µM; activity change, negative = inhibition: at the top concentration
Text: NIH Molecular Libraries Probe Production Centers Network [MLPCN] NIH Chemical Genomics Center [NCGC] MLPCN Grant: NS059428-01 Assay Submitter (PI): Blenis, John; Hoffman, Greg; Harvard University NCGC Assay Overview: The mammalian target of rapamycin (mTOR) is an intracellular serine/threonine kinase Aberrant regulation of mTOR signaling plays a causative role in a number of human diseases, including cancer, benign tumors such as lymphangioleiomyomatosis (LAM) and Tuberous Sclerosis Complex (TSC), and metabolic diseases such as diabetes and obesity. This project aims to identify inhibitors of ribosomal protein S6 (rpS6) phosphorylation. The phosphorylation of rpS6 is a key event downstream of mTOR activation. The assay uses a phospho-specific antibody of phospho-rpS6 to detect inhibitors of mTOR activation. Mutations in the Tsc1 and Tsc2 genes are the underlying genetic lesions responsible for TSC, causing constitutive activation of the mTORC1 pathway and leading to profound effects on cell metabolism. Aberrant metabolism in cancer has recently received significant attention as a target to develop therapeutic agents in the treatment of cancer.1 As Tsc2-/- cells have lost the ability to respond to energy and growth factor deprivation, these cells are unable to properly down regulate cellular biosynthetic processes in response to metabolic stress, and are thus extremely sensitive to glucose deprivation-induced death.2 A central goal of this project is to explore the unique cell survival and metabolic properties of cells with Tsc1 or Tsc2 by screening for compounds that selectively target the Tsc2-/- MEFs by screening both Tsc2-/- and WT MEF cell lines. We hope to better understand these aspects of TSC physiology in order to exploit them for therapeutic benefit.
NCGC Acumen Assay Protocol Summary: For quantitative high throughput analysis of mTORC1 signaling, we developed a cell-based assay for immuno-fluorescence based detection of rpS6 phosphorylation on the Acumen Explorer that will be used a platform for the primary small molecule screen. Mouse embryonic fibroblasts (MEFs) are cultured in 1536-well plates using DMEM + 10% FBS. Twenty-four hrs after plating, test compounds (solubilized in DMSO) are delivered and incubated with the cells for 24 hrs at 37 degree Celsius. Following the incubation, media with compound is aspirated and the cells are fixed in 4% paraformaldehyde (PFA) containing PBS + 0.2% TX-100. Next, PFA is aspirated, cells are washed two times with PBS plus 0.2% TX-100 and the cells are blocked for 1 hr at room temperature (blocking buffer: LiCOR Blocking Buffer plus 0.2% TX-100). […] Cells are washed two times with PBS plus 0.2% TX-100, and stained with 10 uM propidium iodide (PI) for 20-25 minutes for cell number measurement (1:500 dilution of Hoescht staining is also added for IN Cell imaging). The plates are scanned on the Acumen Explorer laser scanning instrument (TTP Labtech) using the 488nm laser for simultaneous excitation of the Alexa-488 and PI. […] The normalized phospho-S6 staining is calculated as the ratio of the integrated Alexa 488 intensity divided by the integrated PI intensity for the single concentration rapamycin control (7.5 nM) and DMSO columns. […] Inhibition of the pathway is defined based on the normalized phospho-S6 intensity in rapamycin treated cells. Active cells are defined as those with a normalized phospho-S6 staining above this threshold, and each treatment is reported as the % positive cells in the well, where thresholds are defined by selecting wells with the highest and lowest signal and differentiating between the % non-active and % active populations. In addition to the pathway specific phospho-S6 endpoint, the number of PI stained cells from the Acumen is recorded as a measure of cell viability. The primary screen was performed with a MEF cell line in a defined genetic background, Tsc2-/-, p53-/- cell line stably transfected with an empty vector control (Tsc2-/- MEF).
Potency is read from the fitted curve at half-maximal effect.

Q: With O=C(NC1CCCC1)c1ccc(CSc2nc3ccncc3n2Cc2cccc(F)c2)cc1 as the compound, how does the “activity change, negative = inhibition” value read?
A: The value was inactive: -8.79%.

Q: With CCOc1cc(C(=O)NCc2ccc3c(c2)CCN3C(=O)c2ccc(F)cc2)cc(OCC)c1OCC as the compound, how does the “activity change, negative = inhibition” value read?
A: Its value is inactive: 1.44%.

Q: For CCCCOc1ccc(C(=O)Nc2ccc3oc(-c4cccnc4)nc3c2)cc1, which “activity change, negative = inhibition” value is on record?
A: Its value is inactive: -0.667%.

Q: With COc1ccc(OCC(=O)N2CCC(c3nc4ccccc4s3)CC2)cc1 as the compound, how does the “activity change, negative = inhibition” value read?
A: Its value is inactive: -0.634%.

Q: With O=C(COc1ccccc1Cl)OCc1cc(=O)n2nc(C3CCCCC3)sc2n1 as the compound, how does the “activity change, negative = inhibition” value read?
A: The value was inactive: -9.02%.

Q: Which “activity change, negative = inhibition” value does the source give for Cc1ccc(CNC(=O)c2ccc3c(c2)c(C)c(C)n3Cc2ccccc2)o1 here?
A: Its value is inactive: 4.35%.

Q: With CCc1ccc(C(=O)c2cnc3ccc(F)cc3c2S(=O)(=O)c2ccccc2)cc1 as the compound, how does the Potency read?
A: The Potency was active: 11.7 µM.

Q: With CC(C)OCCCNC(=O)c1cn(C)c2ccc(S(=O)(=O)N3CCCCCC3)cc2c1=O as the compound, how does the “activity change, negative = inhibition” value read?
A: Its value is inactive: 0.999%.

Q: For Cc1cccc(C(=O)Nc2ccc(-c3nc4ncccc4o3)cc2C)c1, which “activity change, negative = inhibition” value is on record?
A: Its value is inactive: -0.0052%.

Q: For CCn1ccc2cc(S(=O)(=O)N3CCC(C(=O)NCCc4ccccc4Cl)CC3)ccc21, which “activity change, negative = inhibition” value is on record?
A: The value was inactive: -2.45%.

Q: With CC1Cc2cc(S(=O)(=O)NCCc3ccc(Cl)cc3)ccc2N1C(=O)C1CCC1 (stereo not drawn) as the compound, how does the “activity change, negative = inhibition” value read?
A: The value was inactive: -6.7%.

Q: Which Potency does the source give for COc1ccccc1Cn1cc(C(=O)c2ccc(Cl)cc2)c(=O)c2ccccc21 here?
A: Its Potency is active: 3.29 µM.

Q: Which “activity change, negative = inhibition” value does the source give for Cc1c2cnn(CC(=O)NCC(C)c3ccccc3)c(=O)c2c(C)n1Cc1cccc(Cl)c1 (stereo not drawn) here?
A: The value was inactive: -6.07%.

Q: With Cc1cccc(S(=O)(=O)c2cn(Cc3ccccc3)c3cc(N4CCOCC4)c(F)cc3c2=O)c1 as the compound, how does the “activity change, negative = inhibition” value read?
A: The value was inactive: 1.01%.

Q: With Cc1oc2ccc(O)c(CN3CCCC3)c2c1C(=O)Nc1ccccc1 as the compound, how does the “activity change, negative = inhibition” value read?
A: The value was inactive: -1.01%.

Q: With Cc1ccc(-n2ncc(C(=O)NCc3cccs3)c2C2CCN(C(=O)OC(C)(C)C)CC2)cc1 as the compound, how does the “activity change, negative = inhibition” value read?
A: Its value is inactive: 4.21%.

Q: For CCc1cccc2c(-c3ccccc3)nc(SCC(=O)Nc3ccccc3OC)nc12, which “activity change, negative = inhibition” value is on record?
A: The value was inactive: -4.22%.

Q: With COc1ccccc1NC(=O)C(C)Sc1nnc2ccc3ccccc3n12 (stereo not drawn) as the compound, how does the “activity change, negative = inhibition” value read?
A: Its value is inactive: 0%.

Q: With Cc1ccc(CNC(=O)CN2C(=O)CCn3nc(-c4ccccc4)cc32)cc1 as the compound, how does the “activity change, negative = inhibition” value read?
A: The value was inactive: 6.65%.

Q: For CCCCOc1ccc(C(=O)NCCc2csc(-c3cccc(F)c3)n2)cc1, which “activity change, negative = inhibition” value is on record?
A: The value was inactive: -0.162%.

Q: Which “activity change, negative = inhibition” value does the source give for CCCn1c(=O)c2sccc2n2c(CCCC(=O)NC3CCC(C)CC3)nnc12 (stereo not drawn) here?
A: The value was inactive: 2.62%.

Q: Which “activity change, negative = inhibition” value does the source give for COCCOC(=O)C1=C(C)NC(=O)NC1c1cn(-c2ccccc2)nc1-c1ccccc1 (stereo not drawn) here?
A: The value was inactive: -1.79%.

Q: For COc1ccc(OC)c(CCNC(=O)CCc2cn(Cc3cc(C)ccc3C)c3ccccc23)c1, which “activity change, negative = inhibition” value is on record?
A: The value was inactive: -16.7%.

Q: With O=C(Cn1c(=O)c2cccn2c2ccc(F)cc21)N1CCN(c2ccccc2F)CC1 as the compound, how does the “activity change, negative = inhibition” value read?
A: The value was inactive: -4.29%.

Q: For Cc1ccc(Cl)cc1NS(=O)(=O)c1ccc2c(c1)NC(=O)CCS2, which “activity change, negative = inhibition” value is on record?
A: Its value is inactive: -0.593%.

Q: With Fc1ccc(-n2ncc3c(NCCCn4ccnc4)ncnc32)cc1 as the compound, how does the “activity change, negative = inhibition” value read?
A: Its value is inactive: 5.42%.

Q: Which “activity change, negative = inhibition” value does the source give for COc1cccc(C2NC(=O)c3n[nH]c(-c4cccs4)c32)c1 (stereo not drawn) here?
A: The value was inactive: -18%.

Q: For COc1ccc(Br)cc1CNC(=O)c1cnc2sc(N3CCCC3)nn2c1=O, which “activity change, negative = inhibition” value is on record?
A: Its value is inactive: -11.6%.

Q: Which “activity change, negative = inhibition” value does the source give for COc1ccc(C(=O)N(Cc2cc(OC)c(OC)c(OC)c2)c2ccccn2)cc1 here?
A: Its value is inactive: -16.6%.

Q: Which “activity change, negative = inhibition” value does the source give for O=C(Cn1c(=O)nc(-c2ccccc2)c2ccccc21)NCCc1ccc(Cl)cc1 here?
A: Its value is inactive: 0%.

Q: Which “activity change, negative = inhibition” value does the source give for CN1CCN(C(CNC(=O)c2ccccc2F)c2ccc3c(c2)OCO3)CC1 (stereo not drawn) here?
A: The value was inactive: -2.27%.

Q: For Cc1cc2[nH]c(=O)c(=O)[nH]c2cc1S(=O)(=O)N1CCN(c2cccc(C(F)(F)F)c2)CC1, which “activity change, negative = inhibition” value is on record?
A: The value was inactive: -0.21%.

Q: With COc1ccc(NC(=O)c2sc3nc(-c4cc5ccc(OC)cc5oc4=O)[nH]c(=O)c3c2C)cc1 as the compound, how does the “activity change, negative = inhibition” value read?
A: Its value is inactive: 3.76%.

Q: For CCCCN(CC)CCNC(=O)CCn1cnc2onc(-c3ccc(F)cc3)c2c1=O, which “activity change, negative = inhibition” value is on record?
A: The value was inactive: -13.8%.

Q: For Cc1cccc(-n2cc(-c3ccccc3)c3c(N4CCC(C)CC4)ncnc32)c1, which “activity change, negative = inhibition” value is on record?
A: Its value is inactive: 8.92%.

Q: Which “activity change, negative = inhibition” value does the source give for COc1cc(NC(=O)NCC2CCN(Cc3ccccc3Cl)CC2)cc(OC)c1OC here?
A: The value was inactive: -1.5%.

Q: Which “activity change, negative = inhibition” value does the source give for COc1ccc(-c2cn3nc(N4CCCC(C(=O)Nc5cc(C)ccc5C)C4)sc3n2)cc1 (stereo not drawn) here?
A: The value was inactive: 0.51%.

Q: Which “activity change, negative = inhibition” value does the source give for COc1ccc(Cl)cc1NC(=O)c1cnc(SC)nc1-c1ccccc1 here?
A: The value was inactive: -0.13%.

Q: Which “activity change, negative = inhibition” value does the source give for Cc1ccccc1NC(=O)C(=O)NCC1(c2ccccc2)CCCC1 here?
A: Its value is inactive: -1.58%.

Q: Which “activity change, negative = inhibition” value does the source give for CCN1CCN(c2ncc3c(n2)CCN(Cc2sccc2C)C3)CC1 here?
A: The value was inactive: 11.5%.

Q: For O=C(CSc1nnc2scc(-c3ccc(Cl)cc3)n12)Nc1cccc(C(F)(F)F)c1, which “activity change, negative = inhibition” value is on record?
A: The value was inactive: -16.4%.

Q: For COc1cc(NC(=O)CC(C)S(=O)(=O)c2ccc3c(c2)CCN3C(C)=O)cc(OC)c1OC (stereo not drawn), which “activity change, negative = inhibition” value is on record?
A: The value was inactive: 3.79%.

Q: For CCOc1ccc(Nc2nc(C)c(NC(=O)c3ccc(C)cc3)c(Nc3ccc(OCC)cc3)n2)cc1, which “activity change, negative = inhibition” value is on record?
A: Its value is inactive: -16.4%.

Q: With Cc1ccc(NC(=O)CN(C)S(=O)(=O)c2cccc3cccnc23)cc1F as the compound, how does the “activity change, negative = inhibition” value read?
A: Its value is inactive: -8.57%.

Q: With COc1ccc(Cl)cc1Nc1nc2ccc(C(=O)c3ccccc3)cc2n2cnnc12 as the compound, how does the “activity change, negative = inhibition” value read?
A: The value was inactive: -15.4%.

Q: Which “activity change, negative = inhibition” value does the source give for CCOC(=O)Cc1ccc(NC(=O)N2CCc3c(sc4c3CCCC4)C2c2ccc(F)cc2)cc1 (stereo not drawn) here?
A: The value was inactive: 0%.

Q: For CCn1c(=O)c2cc(C(=O)N3CCN(c4cccc(OC)c4)CC3)sc2c2ccccc21, which “activity change, negative = inhibition” value is on record?
A: The value was inactive: -19%.

Q: With CCc1ccc(C(c2ccccc2)c2c[nH]c3ccc(C)cc23)s1 (stereo not drawn) as the compound, how does the “activity change, negative = inhibition” value read?
A: Its value is inactive: -10.7%.
